Some of the results follow.
The compounds below were run on T1, C. trachomatis L2/434/Bu expressing GFP (CTL2-GFP). Details: total inclusion area; 28.5 h, 10 µM; inhibitor.
T1 construct: L2/434/Bu GFP intracellular growth in HeLa cells
Parameters: species or system HeLa; C. trachomatis total inclusion area by high-content imaging, normalised to DMSO
Summary of the method: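 Host cell viability was gauged from Hoechst-stained nuclei counts, while chlamydial growth was taken from total inclusion area and inclusion number per well. Cells were fixed and imaged by high-content microscopy once bulk GFP and resorufin fluorescence had been measured.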

| SMILES | % of control remaining |
| --- | --- |
| CCOc1ccc(Cl)cc1CN(C)C(=O)NCC(C)CN(C)C (centres unmarked) [CBK307500] | 86.9389 |
| O=C(NCC1(c2ccccc2F)CCCC1)c1cc[nH]c(=O)c1 [CBK281378] | 108.981 |
| COC(=O)[C@H]1CN(C(=O)c2cccnc2)C[C@@H]1c1ccc(F)cc1 [CBK283788] | 99.9924 |
| O=S(=O)(NCCSCc1ccco1)c1ccc(Cl)cc1 [CBK232206] | 111.577 |
| COc1ccc(SCCCCN2CCC3(CC2)OCCc2c3[nH]c3ccccc23)cc1 [CBK113464T] | 0 |
| OC(CSc1ccccc1)CN1CCN(Cc2ccc3c(c2)OCO3)CC1 (centres unmarked) [CBK074761] | 90.6072 |
| O=C(NC(=O)C1CCNCC1)Nc1ccccc1 [CBK034794] | 107.771 |
| CN(C)CC(=O)N1CCc2nc(-c3cccc(F)c3)sc2C1 [CBK281801] | 104.322 |
| CC(C)CC(=O)N1CCC(n2c(=O)oc3ccc(Cl)cc32)CC1 [CBK285477] | 85.2128 |
| C[C@H](Nc1nc(-c2cc(C(F)(F)F)cc(C(F)(F)F)c2)cnc1N)c1ccccc1 [CBK063768] | 83.1143 |
| CCn1c(=O)n(CC2(O)CCCOC2)c2cc(S(=O)(=O)N(C)C)ccc21 (centres unmarked) [CBK304788] | 69.2246 |
| O=C1NC[C@@H](CCC(=O)N2CCCC2)N2C[C@@H](NC(=S)Nc3ccccc3)C[C@@H]12 [CBK289004] | 102.589 |
| Cc1ccc(C)c2c1c1nc3ccccc3nc1n2Cc1nnc(-c2ccccc2)o1 [CBK268677] | 123.231 |
| Cc1ccccc1NC(=O)c1ccc(Br)o1 [CBK107152] | 25.6727 |
| COc1nccnc1-c1ccc(Cl)c(Cl)c1 [CBK107110] | 100.52 |
| C=CCn1c(Cc2csc(NC(=O)Cc3cc(OC)c(OC)c(OC)c3)n2)n[nH]c1=S [CBK295311] | 94.3081 |
| Cc1nc(C(Cc2ccsc2)NC(=O)c2ccnn2C)sc1C (centres unmarked) [CBK284778] | 91.8996 |
| Cc1cc(C)c2c(C(C)(C)C)nn(-c3ccc(C(=O)O)cc3)c2n1 [CBK267481] | 114.377 |
| COC(=O)c1cc(Br)ccc1NC(=O)COc1ccccc1C [CBK263715] | 105.441 |
| CC(C)[C@H](CO)Nc1nc(-c2ccccc2)cnc1N [CBK063933] | 84.1752 |
| CCN(CC)CCN(C)Cc1ccccc1Br [CBK026593] | 100.701 |
| O=C(CN1C(=O)[C@@H]2CCCN2c2ncccc21)NC1CCCCC1 [CBK286204] | 106.302 |
| Nc1ncc(-c2cccc(/C=C/C(=O)O)c2)nc1N1CCN(CCO)CC1 [CBK063665] | 129.584 |

— publication PMC12040169 (PLOS Biology, 2025)
